Test results as given in paper PMC4336329 (PLoS ONE, 2015).
In all, about 310,000 compounds went through this assay and about 2,200 (0.71%) showed an effect of 50% or more. Effects have a minus sign here. The list shows a part of the results.

Target: human ether-à-go-go-related gene (hERG) potassium channel (human, UniProt Q12809)
Assay: primary screen, population patch clamp on CHO cells stably expressing hERG

Chain of human ether-à-go-go-related gene (hERG) potassium channel (Q12809 whole entry, looked up): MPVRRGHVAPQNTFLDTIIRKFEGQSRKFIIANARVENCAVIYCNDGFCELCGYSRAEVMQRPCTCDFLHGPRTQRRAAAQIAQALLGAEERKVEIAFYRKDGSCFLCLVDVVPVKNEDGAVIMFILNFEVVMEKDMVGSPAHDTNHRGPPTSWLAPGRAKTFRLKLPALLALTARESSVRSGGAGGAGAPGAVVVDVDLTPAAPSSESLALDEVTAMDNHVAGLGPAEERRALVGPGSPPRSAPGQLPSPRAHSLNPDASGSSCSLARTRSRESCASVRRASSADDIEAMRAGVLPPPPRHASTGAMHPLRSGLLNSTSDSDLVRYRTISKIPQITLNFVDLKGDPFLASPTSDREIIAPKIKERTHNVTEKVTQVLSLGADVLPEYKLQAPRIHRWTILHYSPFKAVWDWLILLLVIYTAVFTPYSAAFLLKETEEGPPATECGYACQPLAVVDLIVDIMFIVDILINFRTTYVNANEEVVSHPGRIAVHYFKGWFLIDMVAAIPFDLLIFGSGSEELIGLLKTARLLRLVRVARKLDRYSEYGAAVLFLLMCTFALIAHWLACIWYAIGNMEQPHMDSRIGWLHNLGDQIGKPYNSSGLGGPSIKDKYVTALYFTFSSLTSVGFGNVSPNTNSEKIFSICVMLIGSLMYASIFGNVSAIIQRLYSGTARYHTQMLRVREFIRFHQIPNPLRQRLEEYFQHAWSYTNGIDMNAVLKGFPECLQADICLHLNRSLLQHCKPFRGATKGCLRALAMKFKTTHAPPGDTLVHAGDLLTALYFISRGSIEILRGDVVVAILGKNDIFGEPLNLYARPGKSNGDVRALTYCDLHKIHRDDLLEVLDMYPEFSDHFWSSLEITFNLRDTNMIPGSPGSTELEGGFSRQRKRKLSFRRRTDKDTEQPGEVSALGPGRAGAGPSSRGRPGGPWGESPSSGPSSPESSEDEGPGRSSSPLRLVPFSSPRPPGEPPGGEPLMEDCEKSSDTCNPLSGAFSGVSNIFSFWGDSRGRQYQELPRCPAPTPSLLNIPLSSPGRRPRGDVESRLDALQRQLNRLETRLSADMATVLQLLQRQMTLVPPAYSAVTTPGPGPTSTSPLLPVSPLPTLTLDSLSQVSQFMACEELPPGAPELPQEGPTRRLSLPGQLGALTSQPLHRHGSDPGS

SMILES | hERG current change (%, negative = inhibition) at 1uM [%]
CC(=O)NC1(C(F)(F)F)NC(=O)N(CCc2ccccc2)C1=O (centres unmarked) | 20.5
O=c1cc(CN2CCN(Cc3ccccc3)CC2)c2cc(O)ccc2o1 | -39.4
CC(C)Oc1ccc(S(=O)(=O)N2CCOCC2)cc1NC(=O)c1ccc(N2CCCC2=O)cc1 | 7.24
CCOC(=O)C1CCN(c2cc(C)nc3ccc(OC)cc23)CC1 | -56.1
O=[N+]([O-])c1ccc(S(=O)(=O)NCCS(=O)(=O)N2CCN(c3ccccc3)CC2)cc1 | 13.9
Cc1cc(C)n(CC(=O)NC2C(=O)N3C(C(=O)O)=C(CSc4nnc(C)s4)CSC23)n1 (centres unmarked) | 10.9
COc1ccc(-n2c(SCC(=O)Nc3nccs3)nnc2-c2ccoc2C)cc1 | -79.4
COCCOC(=O)C1=C(C)NC2=C(C(=O)CC(c3cccs3)C2)C1c1ccsc1 (centres unmarked) | 7.93
COCC(=O)N(C)CC1CCCN(CCc2ccccc2OC)C1 (centres unmarked) | 13
Nc1sc(-c2ccccc2)n[n+]1Cc1cccc2cccnc12.[Br-] | -19.8
O=C(Nc1ccc(Cl)c(C(F)(F)F)c1)[C@@H]1CC=C[C@@H]2CCN(Cc3ccccc3)C(=O)[C@@H]21 | -3.52
Nn1c(SCC(=O)Nc2c(Cl)cccc2Cl)nncc1=O | 6.57
COc1ccc(C)cc1NC(=O)CC(O)(C(F)(F)F)C(F)(F)F | 9.6
O=C1CC(N2CCN(c3ccccn3)CC2)C(=O)N1CC(c1ccccc1)c1ccccc1 (centres unmarked) | -9.72
N#CC1=C(N)C2=CCCC[C@H]2[C@H](c2ccc(Br)cc2)C1(C#N)C#N | 1.85
Oc1nc(Nc2ccc(Cl)cc2Cl)sc1/C=C1\C=Nc2ccccc21 | 6.56
CCOc1ccccc1C(=O)N(C)Cc1cc2cc(OC)ccc2[nH]c1=O | -3.03
CCCOc1ccc(-c2c(C(=O)N/N=C/c3cccs3)nnn2-c2nonc2N)cc1 | 18.2
Cc1cc(C)n2nc(SCC(=O)Nc3c(C)n(C)n(-c4ccccc4)c3=O)nc2n1 | -0.183

SMILES | hERG current change (%, negative = inhibition) at 1uM [%]
O=C(COc1ccc2c(c1)oc(=O)c1ccccc12)NCCN1CCOCC1 | -1.07
COC(=O)C1=NNC2C(=O)N(C3CCCCC3)C(=O)C12 (centres unmarked) | 1.34
COc1ccc(OCc2cc(C(=O)N3CCSCC3)no2)c(Cl)c1 | 17.4
COc1ccc2c(=O)c(C(=O)O)c(-c3ccc4c(c3)OCO4)n(C)c2c1 | 12.9
CC1(C)C=C(c2ccc(C(=O)O)s2)CC(C)(C)N1.Cl | 8.74
Cc1cccc(NC(=O)C2(c3ccccc3)CCOCC2)c1 | 5.14
CCNS(=O)(=O)c1ccc(Br)c(C(=O)OC(C)C(=O)NCC2CCCCC2)c1 (centres unmarked) | -16.8
COc1ccccc1NC(=O)CSc1nc(N)cc(N)n1 | 4.44
Cc1ccc(C)c(NC(=O)c2ccccn2)c1 | -2.93
CN(CCc1cn[nH]c1)Cc1nc(Cc2ccccc2)no1 | 15.6
CCOC(=O)c1c(C)oc2c1c1c(c3ccccc32)OCN(CCCC(=O)O)C1 | 4.61
Cc1ccc(S(=O)(=O)c2c(O)c3ccc(C(=O)O)cc3[nH]c2=O)cc1 | 12.3
COc1ccc(NC(=O)c2ccc3ccccc3c2OC)cc1 | 9.51
Cc1ccc(-c2ncccc2OC(=O)C23CC4CC(CC(C4)C2)C3)cc1.Cl | 15.9
CCn1cc(C(=O)NCc2ccc3c(c2)OCO3)c(=O)c2cc(F)c(N3CCN(C)CC3)cc21 | -12.9
Cc1noc(NS(=O)(=O)c2ccc(NC(=O)C34CC5CC(C3)CC(n3cnc(Cl)n3)(C5)C4)cc2)c1C | 7.74
O=C(Nc1cccc(F)c1)N1CCN(C(=O)c2ccco2)CC1 | 4.87
CC1(C)C2CC=C(CN3CCC(O)CC3)C1C2 (centres unmarked) | 0.781
COc1ccc(C(=O)Nc2ccc(-n3nncc3C(C)(C)C)cc2)cc1 | -1.01

SMILES | hERG current change (%, negative = inhibition) at 1uM [%]
COc1cccc(NC(=O)CN(C)C(=O)c2ccc(NC3CC3)c([N+](=O)[O-])c2)c1 | -40.8
O=C(NCC(=O)N1CCCC(C(F)(F)F)C1)c1ccccc1F (centres unmarked) | 16.4
O=c1[nH]c2cccnc2n1-c1cccc([N+](=O)[O-])c1 | 9.56
CN(CCOc1ccccc1)C(=O)CNC(=O)c1ccc(C(C)(C)C)cc1 | -0.513
CCC(OC(=O)c1nsc(Cl)c1Cl)C(=O)NC(C)(C)C (centres unmarked) | 11.1
O=C(CN1CCN(S(=O)(=O)/C=C/c2ccccc2)CC1)Nc1ccccc1N1CCOCC1 | -6.17
CS(=O)(=O)N1CCCC(C(=O)NCc2ccccn2)C1 (centres unmarked) | 6.34
Cc1cc(-c2ccccc2)n2nc(N)nc2n1 | 5.68
CCOC(=O)C1=NN(c2ccc(Cl)cc2)C(=O)C1 | 13.6
O=S(=O)(c1ccc(F)c(F)c1F)N1CCN(C(=S)Nc2ccccc2)CC1 | 4.27
CCOC(=O)c1cccc(NC(=O)CSc2nnnn2C)c1 | 6.91
Cc1sc(N2C(=O)C3C(C2=O)[C@H]2C=C[C@@H]3C2)c(C#N)c1C (some centres unmarked) | 6.54
Cc1cccc(N2C(=O)c3cccc4c(N)ccc(c34)C2=O)c1 | 9.62
CCn1c(-c2ccc(C(C)(C)C)cc2)n[nH]c1=S | 16
Cc1cccc(-c2cnn(-c3ccccc3)c2N)c1 | 14.4
O=C1[C@@H]2C(c3ccc(F)cc3)=NO[C@@H]2C(=O)N1Cc1ccccc1 | 12.9
O=c1[nH]c(=O)n(-c2ccc(Br)cc2)c(O)c1C=NC(CO)(CO)CO | 8.94
COc1ccc(NC(=O)COc2ccc(/C=C/c3cccc[n+]3C)cc2OC)cc1.[I-] | 8.91
